Measured values as given in PMC12820563.
The list shows a part of the results. The list includes weakly bound sequences.

What follows are sequences tested against T1, MBP-FoxP3dN (UniProt Q99JB6) (assay: PD-seq (MBP pull-down with sequencing)). Settings: 20 mM Tris-HCl pH 7.5, 100 mM NaCl, 1.5 mM MgCl2, 0.4 uM protein, 0.1 uM dsDNA library, 30 min, room temperature, amylose pull-down; high values mean tight binding; double strand, one strand shown.
T1 sequence: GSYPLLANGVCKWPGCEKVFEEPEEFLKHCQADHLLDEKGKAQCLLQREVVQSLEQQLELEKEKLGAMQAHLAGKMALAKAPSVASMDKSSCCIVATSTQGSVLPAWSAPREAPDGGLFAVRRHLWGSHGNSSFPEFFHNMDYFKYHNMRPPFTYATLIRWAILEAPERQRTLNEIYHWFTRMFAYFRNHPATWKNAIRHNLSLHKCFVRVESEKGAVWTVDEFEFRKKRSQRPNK

Question: “GATGATTGTTCTCCCAGCTGATGAATTATACGGCTCGAGTAAACAAATTTTCCTAATCTTTCTGTTCAAGCGCCATCTAC” was tested. Which binding signal (RPM ratio (pull-down/input)) did it give?
Answer: 0.356

Question: Which binding signal (RPM ratio (pull-down/input)) does the source give for “GATGATTGTTCTCCCAGCTGATGAATTAGGCGAATCGAGTAAACAAATTTTCCTAATCTTTCTGTTCAAGCGCCATCTAC” here?
Answer: 0.432

Question: “GATGATTGTTCTCCCAGCTGATGAATTTGTTGATTCGAGTAAACAAATTTTCCTAATCTTTCTGTTCAAGCGCCATCTAC” was tested. Which binding signal (RPM ratio (pull-down/input)) did it give?
Answer: 7.3

Question: Which binding signal (RPM ratio (pull-down/input)) does the source give for “GATGATTGTTCTCCCAGCTGATGAATTCTAGGTGTCGAGTAAACAAATTTTCCTAATCTTTCTGTTCAAGCGCCATCTAC” here?
Answer: 0.482

Question: “GATGATTGTTCTCCCAGCTGATGAATTCTAATCGTCGAGTAAACAAATTTTCCTAATCTTTCTGTTCAAGCGCCATCTAC” was tested. Which binding signal (RPM ratio (pull-down/input)) did it give?
Answer: 0.384

Question: With “GATGATTGTTCTCCCAGCTGATGAATTTGCCAGCTCGAGTAAACAAATTTTCCTAATCTTTCTGTTCAAGCGCCATCTAC” as the sequence, how does the binding signal (RPM ratio (pull-down/input)) read?
Answer: 0.472

Question: For “GATGATTGTTCTCCCAGCTGATGAATTGGGGGGATCGAGTAAACAAATTTTCCTAATCTTTCTGTTCAAGCGCCATCTAC”, which binding signal (RPM ratio (pull-down/input)) is on record?
Answer: 0.37

Question: With “GATGATTGTTCTCCCAGCTGATGAATTGAGGAGATCGAGTAAACAAATTTTCCTAATCTTTCTGTTCAAGCGCCATCTAC” as the sequence, how does the binding signal (RPM ratio (pull-down/input)) read?
Answer: 0.248

Question: Which binding signal (RPM ratio (pull-down/input)) does the source give for “GATGATTGTTCTCCCAGCTGATGAATTGTGGACATCGAGTAAACAAATTTTCCTAATCTTTCTGTTCAAGCGCCATCTAC” here?
Answer: 0.982

Question: Which binding signal (RPM ratio (pull-down/input)) does the source give for “GATGATTGTTCTCCCAGCTGATGAATTGGATCTGTCGAGTAAACAAATTTTCCTAATCTTTCTGTTCAAGCGCCATCTAC” here?
Answer: 0.271

Question: “GATGATTGTTCTCCCAGCTGATGAATTAGGCCCATCGAGTAAACAAATTTTCCTAATCTTTCTGTTCAAGCGCCATCTAC” was tested. Which binding signal (RPM ratio (pull-down/input)) did it give?
Answer: 1.08

Question: For “GATGATTGTTCTCCCAGCTGATGAATTTGATTGGTCGAGTAAACAAATTTTCCTAATCTTTCTGTTCAAGCGCCATCTAC”, which binding signal (RPM ratio (pull-down/input)) is on record?
Answer: 5.03

Question: For “GATGATTGTTCTCCCAGCTGATGAATTACTGCCTTCGAGTAAACAAATTTTCCTAATCTTTCTGTTCAAGCGCCATCTAC”, which binding signal (RPM ratio (pull-down/input)) is on record?
Answer: 1.77

Question: With “GATGATTGTTCTCCCAGCTGATGAATTCGCGCAGTCGAGTAAACAAATTTTCCTAATCTTTCTGTTCAAGCGCCATCTAC” as the sequence, how does the binding signal (RPM ratio (pull-down/input)) read?
Answer: 0.604

Question: How did the binding signal (RPM ratio (pull-down/input)) turn out when “GATGATTGTTCTCCCAGCTGATGAATTCGTAAGGTCGAGTAAACAAATTTTCCTAATCTTTCTGTTCAAGCGCCATCTAC” was run?
Answer: 0.308

Question: For “GATGATTGTTCTCCCAGCTGATGAATTTGAGCTTTCGAGTAAACAAATTTTCCTAATCTTTCTGTTCAAGCGCCATCTAC”, which binding signal (RPM ratio (pull-down/input)) is on record?
Answer: 0.819

Question: Which binding signal (RPM ratio (pull-down/input)) does the source give for “GATGATTGTTCTCCCAGCTGATGAATTTGTCAGATCGAGTAAACAAATTTTCCTAATCTTTCTGTTCAAGCGCCATCTAC” here?
Answer: 0.543

Question: For “GATGATTGTTCTCCCAGCTGATGAATTTAACAAGTCGAGTAAACAAATTTTCCTAATCTTTCTGTTCAAGCGCCATCTAC”, which binding signal (RPM ratio (pull-down/input)) is on record?
Answer: 0.219

Question: With “GATGATTGTTCTCCCAGCTGATGAATTAGAAAGATCGAGTAAACAAATTTTCCTAATCTTTCTGTTCAAGCGCCATCTAC” as the sequence, how does the binding signal (RPM ratio (pull-down/input)) read?
Answer: 0.174

Question: “GATGATTGTTCTCCCAGCTGATGAATTAGCCCAGTCGAGTAAACAAATTTTCCTAATCTTTCTGTTCAAGCGCCATCTAC” was tested. Which binding signal (RPM ratio (pull-down/input)) did it give?
Answer: 0.209

Question: With “GATGATTGTTCTCCCAGCTGATGAATTTCGGAGGTCGAGTAAACAAATTTTCCTAATCTTTCTGTTCAAGCGCCATCTAC” as the sequence, how does the binding signal (RPM ratio (pull-down/input)) read?
Answer: 0.25

Question: “GATGATTGTTCTCCCAGCTGATGAATTGCTGTGTTCGAGTAAACAAATTTTCCTAATCTTTCTGTTCAAGCGCCATCTAC” was tested. Which binding signal (RPM ratio (pull-down/input)) did it give?
Answer: 1.37

Question: For “GATGATTGTTCTCCCAGCTGATGAATTTCCCTGGTCGAGTAAACAAATTTTCCTAATCTTTCTGTTCAAGCGCCATCTAC”, which binding signal (RPM ratio (pull-down/input)) is on record?
Answer: 0.183

Question: With “GATGATTGTTCTCCCAGCTGATGAATTCTGCCCGTCGAGTAAACAAATTTTCCTAATCTTTCTGTTCAAGCGCCATCTAC” as the sequence, how does the binding signal (RPM ratio (pull-down/input)) read?
Answer: 2.06

Question: With “GATGATTGTTCTCCCAGCTGATGAATTCGCCAGTTCGAGTAAACAAATTTTCCTAATCTTTCTGTTCAAGCGCCATCTAC” as the sequence, how does the binding signal (RPM ratio (pull-down/input)) read?
Answer: 0.356

Question: For “GATGATTGTTCTCCCAGCTGATGAATTAAGGCCATCGAGTAAACAAATTTTCCTAATCTTTCTGTTCAAGCGCCATCTAC”, which binding signal (RPM ratio (pull-down/input)) is on record?
Answer: 1.38

Question: With “GATGATTGTTCTCCCAGCTGATGAATTGTAGTTCTCGAGTAAACAAATTTTCCTAATCTTTCTGTTCAAGCGCCATCTAC” as the sequence, how does the binding signal (RPM ratio (pull-down/input)) read?
Answer: 1.39

Question: For “GATGATTGTTCTCCCAGCTGATGAATTACCGTTCTCGAGTAAACAAATTTTCCTAATCTTTCTGTTCAAGCGCCATCTAC”, which binding signal (RPM ratio (pull-down/input)) is on record?
Answer: 0.537

Question: How did the binding signal (RPM ratio (pull-down/input)) turn out when “GATGATTGTTCTCCCAGCTGATGAATTATAGTGTTCGAGTAAACAAATTTTCCTAATCTTTCTGTTCAAGCGCCATCTAC” was run?
Answer: 1.13

Question: “GATGATTGTTCTCCCAGCTGATGAATTACCAAATTCGAGTAAACAAATTTTCCTAATCTTTCTGTTCAAGCGCCATCTAC” was tested. Which binding signal (RPM ratio (pull-down/input)) did it give?
Answer: 0.307

Question: How did the binding signal (RPM ratio (pull-down/input)) turn out when “GATGATTGTTCTCCCAGCTGATGAATTGTAGTTATCGAGTAAACAAATTTTCCTAATCTTTCTGTTCAAGCGCCATCTAC” was run?
Answer: 1.79
